Reference: the supplement of paper PMC7826260
The other results are listed elsewhere or left out. Cleavage of a single-stranded DNA pool by Rep nickase domains was read by sequencing (1 h at 37 °C, 3 µM enzyme); the outer parts of the 90-letter strands are left off. The score is log2 (uncut reads / reads without enzyme); more negative means more cut, near 0 not cut, and no call is made. Shares of all reads are compared, so uncut sequences can rise above 0 when many others are cut.

What follows are sequences tested on T1, Rep nickase domain of Muscovy duck circovirus (assay: uncleaved DNA left, log2 of reads against the no-enzyme library (log2 ratio); higher = less cleavage (more negative = more Rep cleavage of the k-mer); sequences stand for … in CTCGTCCG…ACCGGAGA).
T1 sequence (Rep 1-111, printed without the tag): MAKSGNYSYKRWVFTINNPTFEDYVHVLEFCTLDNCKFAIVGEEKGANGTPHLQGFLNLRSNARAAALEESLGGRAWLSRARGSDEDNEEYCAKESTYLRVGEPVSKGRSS
Method: (§1)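 A pool of 90-nt single-stranded DNAs with seven random bases just before the constant AC of the nick site (name = the seven bases) was cut by 3 µM recombinant His6-SUMO-tagged Rep nickase domain (300 nM DNA, 50 mM HEPES pH 8.0, 50 mM NaCl, 1 mM MnCl2, 1 h, 37 °C, three replicates). Uncut DNA was amplified and sequenced.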

| Sequence | uncleaved DNA left (log2) |
| --- | --- |
| CTCTCGC | -0.316 |
| GTATCGT | -0.00649 |
| TCCCTAG | -0.0925 |
| CCCACAT | 0.0912 |
| ACTCGGG | -0.0353 |
| GGGCCTC | 0.0889 |
| AGTCAGA | 0.118 |
| GAATTCC | 0.0146 |
| GATTCTC | -1.74 |
| GTGCGTA | 0.0294 |
| GAAATAG | 0.0903 |
| CTAGGAG | 0.0885 |
| ACTGGAC | -0.0716 |
| GTCTATT | -2.39 |
| TATTTGT | -3.43 |
| AGTGAAA | 0.0354 |
| AGCTCCT | -0.0242 |
| CCAGGAC | -0.00475 |
| AATTTCC | -3.01 |
| ATGCCAA | -0.0257 |

| Sequence | uncleaved DNA left (log2) |
| --- | --- |
| GCATAAT | -1.77 |
| TTAGCCG | -0.0409 |
| ATAGTCT | -0.129 |
| TCTTACA | -0.248 |
| GCTGAGG | -0.0739 |
| CACGTTC | -0.00625 |
| TGTATAA | -0.0475 |
| GATTAAC | 0.1 |
| CAGGTCG | 0.0794 |
| GTGGTTA | 0.0535 |
| ATAAGTT | -0.0296 |
| TGACTAT | 0.0657 |
| CAAAAAT | -0.0118 |
| ATCGAAC | -0.0193 |
| GGCGCGC | -0.172 |
| ACACCAC | 0.157 |
| CTTCGCA | 0.0758 |
| GCGAATG | 0.0379 |
| CAATCTG | 0.00034 |
| CCCGGCC | 0.0272 |

Each sequence was assayed on T2, Rep nickase domain of banana bunchy top virus in the same assay as above.
T2 sequence (Rep 1-94, printed without the tag): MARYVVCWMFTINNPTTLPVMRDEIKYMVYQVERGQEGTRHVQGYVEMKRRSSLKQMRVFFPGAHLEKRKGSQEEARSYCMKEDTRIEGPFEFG
Method: as §1

| Sequence | uncleaved DNA left (log2) |
| --- | --- |
| CTCTCGC | -0.0468 |
| GTATCGT | 0.104 |
| TCCCTAG | 0.0622 |
| CCCACAT | -0.0133 |
| ACTCGGG | 0.0585 |
| GGGCCTC | 0.0848 |
| AGTCAGA | 0.129 |
| GAATTCC | 0.127 |
| GATTCTC | -0.948 |
| GTGCGTA | 0.161 |
| GAAATAG | 0.0309 |
| CTAGGAG | 0.0796 |
| ACTGGAC | -0.167 |
| GTCTATT | -0.285 |
| TATTTGT | -3.29 |
| AGTGAAA | -0.0369 |
| AGCTCCT | 0.00252 |
| CCAGGAC | 0.053 |
| AATTTCC | -0.316 |
| ATGCCAA | 0.0176 |

| Sequence | uncleaved DNA left (log2) |
| --- | --- |
| GCATAAT | 0.0362 |
| TTAGCCG | -0.102 |
| ATAGTCT | -0.107 |
| TCTTACA | 0.0328 |
| GCTGAGG | -0.0354 |
| CACGTTC | -0.0562 |
| TGTATAA | -0.0442 |
| GATTAAC | 0.0667 |
| CAGGTCG | 0.0532 |
| GTGGTTA | 0.0354 |
| ATAAGTT | -0.0621 |
| TGACTAT | 0.00897 |
| CAAAAAT | -0.0499 |
| ATCGAAC | -0.0183 |
| GGCGCGC | -0.103 |
| ACACCAC | 0.152 |
| CTTCGCA | 0.0664 |
| GCGAATG | 0.0422 |
| CAATCTG | -0.115 |
| CCCGGCC | -0.0433 |

Each sequence was assayed on T3, Rep nickase domain of cabbage leaf curl virus in the same assay as above.
T3 sequence (Rep 1-116, printed without the tag): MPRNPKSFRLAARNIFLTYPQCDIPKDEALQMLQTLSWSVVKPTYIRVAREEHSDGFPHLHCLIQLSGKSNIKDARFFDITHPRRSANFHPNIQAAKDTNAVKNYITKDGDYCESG
Method: as §1

| Sequence | uncleaved DNA left (log2) |
| --- | --- |
| CTCTCGC | -0.741 |
| GTATCGT | 0.229 |
| TCCCTAG | -0.65 |
| CCCACAT | 0.36 |
| ACTCGGG | -0.49 |
| GGGCCTC | 0.764 |
| AGTCAGA | 0.0827 |
| GAATTCC | 0.0722 |
| GATTCTC | 0.28 |
| GTGCGTA | -0.0683 |
| GAAATAG | -0.656 |
| CTAGGAG | -0.245 |
| ACTGGAC | -0.0667 |
| GTCTATT | 0.164 |
| TATTTGT | -0.601 |
| AGTGAAA | 0.102 |
| AGCTCCT | 0.098 |
| CCAGGAC | 0.409 |
| AATTTCC | -0.402 |
| ATGCCAA | -0.245 |

| Sequence | uncleaved DNA left (log2) |
| --- | --- |
| GCATAAT | -0.0125 |
| TTAGCCG | -0.942 |
| ATAGTCT | -0.386 |
| TCTTACA | -0.993 |
| GCTGAGG | 0.26 |
| CACGTTC | -0.0287 |
| TGTATAA | -0.0105 |
| GATTAAC | 0.2 |
| CAGGTCG | -0.751 |
| GTGGTTA | 0.365 |
| ATAAGTT | -3.3 |
| TGACTAT | 0.365 |
| CAAAAAT | -2.19 |
| ATCGAAC | -0.13 |
| GGCGCGC | -0.11 |
| ACACCAC | 0.0304 |
| CTTCGCA | -0.212 |
| GCGAATG | 0.0287 |
| CAATCTG | -0.154 |
| CCCGGCC | 0.0963 |

What follows are sequences tested on T4, Rep nickase domain of chickpea chlorotic dwarf virus in the same assay as above.
T4 sequence (Rep 1-124, printed without the tag): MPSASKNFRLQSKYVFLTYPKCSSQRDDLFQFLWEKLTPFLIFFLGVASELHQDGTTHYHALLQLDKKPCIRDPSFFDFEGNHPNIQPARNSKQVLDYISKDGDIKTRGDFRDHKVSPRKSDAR
Method: as §1

| Sequence | uncleaved DNA left (log2) |
| --- | --- |
| CTCTCGC | -0.81 |
| GTATCGT | 0.605 |
| TCCCTAG | -0.947 |
| CCCACAT | -0.182 |
| ACTCGGG | -0.21 |
| GGGCCTC | 1.79 |
| AGTCAGA | 0.109 |
| GAATTCC | 0.34 |
| GATTCTC | 0.603 |
| GTGCGTA | 0.202 |
| GAAATAG | -0.519 |
| CTAGGAG | 0.41 |
| ACTGGAC | 0.634 |
| GTCTATT | 0.238 |
| TATTTGT | -1.82 |
| AGTGAAA | 0.466 |
| AGCTCCT | -0.731 |
| CCAGGAC | 1.17 |
| AATTTCC | -1.18 |
| ATGCCAA | -0.0909 |

| Sequence | uncleaved DNA left (log2) |
| --- | --- |
| GCATAAT | -0.375 |
| TTAGCCG | -0.377 |
| ATAGTCT | -2.37 |
| TCTTACA | -2.42 |
| GCTGAGG | 0.868 |
| CACGTTC | -0.864 |
| TGTATAA | 0.183 |
| GATTAAC | 0.00041 |
| CAGGTCG | -0.485 |
| GTGGTTA | 0.843 |
| ATAAGTT | -3.25 |
| TGACTAT | 0.489 |
| CAAAAAT | -2.96 |
| ATCGAAC | -0.186 |
| GGCGCGC | -0.077 |
| ACACCAC | -0.362 |
| CTTCGCA | -0.667 |
| GCGAATG | 0.649 |
| CAATCTG | 0.324 |
| CCCGGCC | 0.298 |

These sequences were tested on T5, Rep nickase domain of faba bean necrotic yellows virus in the same assay as above.
T5 sequence (Rep 1-98, printed without the tag): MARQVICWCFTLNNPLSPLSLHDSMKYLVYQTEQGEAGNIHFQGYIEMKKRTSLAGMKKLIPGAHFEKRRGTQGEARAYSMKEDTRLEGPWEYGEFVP
Method: as §1

| Sequence | uncleaved DNA left (log2) |
| --- | --- |
| CTCTCGC | -0.192 |
| GTATCGT | -0.028 |
| TCCCTAG | -0.0496 |
| CCCACAT | 0.011 |
| ACTCGGG | 0.138 |
| GGGCCTC | 0.0266 |
| AGTCAGA | 0.112 |
| GAATTCC | -0.0394 |
| GATTCTC | -0.00408 |
| GTGCGTA | -0.109 |
| GAAATAG | 0.0454 |
| CTAGGAG | 0.0229 |
| ACTGGAC | -0.0829 |
| GTCTATT | 0.0352 |
| TATTTGT | -0.0799 |
| AGTGAAA | -0.042 |
| AGCTCCT | -0.102 |
| CCAGGAC | -0.0329 |
| AATTTCC | -0.594 |
| ATGCCAA | -0.0445 |

| Sequence | uncleaved DNA left (log2) |
| --- | --- |
| GCATAAT | 0.11 |
| TTAGCCG | 0.0126 |
| ATAGTCT | -0.132 |
| TCTTACA | -0.124 |
| GCTGAGG | 0.038 |
| CACGTTC | -0.0065 |
| TGTATAA | -0.0537 |
| GATTAAC | 0.073 |
| CAGGTCG | 0.103 |
| GTGGTTA | -0.146 |
| ATAAGTT | -0.021 |
| TGACTAT | 0.0463 |
| CAAAAAT | 0.0371 |
| ATCGAAC | -0.0737 |
| GGCGCGC | -0.1 |
| ACACCAC | 0.188 |
| CTTCGCA | 0.0658 |
| GCGAATG | -0.154 |
| CAATCTG | -0.0613 |
| CCCGGCC | 0.0392 |
